Out of some 310,000 compounds screened, about 14,000 (4.5%) showed an effect of 50% or more. Effects have a minus sign here. The list shows a part of the results. Where a SMILES comes first, the peptide text is derived from it. The star is where a group is joined. Boc = CC(C)(C)OC(=O)*; OtBu = CC(C)(C)O*
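Also: peak tail current of the secondary pulse compared with the same well before compound.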

human ether-à-go-go-related gene (hERG) potassium channel, sequence (Q12809 whole entry, looked up): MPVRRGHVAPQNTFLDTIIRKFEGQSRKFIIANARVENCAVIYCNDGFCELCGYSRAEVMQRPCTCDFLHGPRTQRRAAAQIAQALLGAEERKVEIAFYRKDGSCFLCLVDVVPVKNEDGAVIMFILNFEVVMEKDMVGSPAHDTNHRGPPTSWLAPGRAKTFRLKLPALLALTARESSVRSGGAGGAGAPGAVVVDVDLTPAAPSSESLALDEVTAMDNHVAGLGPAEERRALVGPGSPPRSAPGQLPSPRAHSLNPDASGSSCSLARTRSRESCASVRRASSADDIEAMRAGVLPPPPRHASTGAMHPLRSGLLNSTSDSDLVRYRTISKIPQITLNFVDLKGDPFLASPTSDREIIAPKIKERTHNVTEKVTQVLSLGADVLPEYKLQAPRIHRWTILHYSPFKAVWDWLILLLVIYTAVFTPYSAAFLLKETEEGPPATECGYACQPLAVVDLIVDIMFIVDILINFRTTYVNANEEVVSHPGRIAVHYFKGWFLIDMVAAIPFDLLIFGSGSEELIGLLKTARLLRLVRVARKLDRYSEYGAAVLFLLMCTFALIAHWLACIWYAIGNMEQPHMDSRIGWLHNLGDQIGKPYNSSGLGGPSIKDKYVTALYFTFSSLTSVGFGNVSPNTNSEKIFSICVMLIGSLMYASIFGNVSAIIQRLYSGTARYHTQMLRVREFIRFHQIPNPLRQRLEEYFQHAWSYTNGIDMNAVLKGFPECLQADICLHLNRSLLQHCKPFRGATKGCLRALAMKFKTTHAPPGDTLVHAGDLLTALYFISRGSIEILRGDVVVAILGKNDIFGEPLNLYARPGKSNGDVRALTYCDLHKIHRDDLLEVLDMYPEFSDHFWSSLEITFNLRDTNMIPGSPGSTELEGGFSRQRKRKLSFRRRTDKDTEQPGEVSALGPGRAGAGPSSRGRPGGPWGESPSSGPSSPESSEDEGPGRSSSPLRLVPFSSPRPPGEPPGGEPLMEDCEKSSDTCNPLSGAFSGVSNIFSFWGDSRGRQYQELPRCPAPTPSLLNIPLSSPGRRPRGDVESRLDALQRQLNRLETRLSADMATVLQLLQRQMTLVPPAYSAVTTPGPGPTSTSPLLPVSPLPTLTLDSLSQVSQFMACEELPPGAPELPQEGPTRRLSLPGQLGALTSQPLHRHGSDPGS

This test addresses human ether-à-go-go-related gene (hERG) potassium channel (human, UniProt Q12809). Description: primary screen, population patch clamp on CHO cells stably expressing hERG.
Take `O=C(/C=C/c1ccc2c(c1)OCO2)NCCCN1CCOCC1`: the “hERG current change (%, negative = inhibition) at 10uM” value was -9.4%.

On to `C=CCNC(=O)COCc1cc(-c2ccc3c(c2)OCO3)on1`, for which the “hERG current change (%, negative = inhibition) at 10uM” value is given as -1.23%. Then `Oc1ccc2ccccc2c1-c1sc(Nc2ccccc2)n[n+]1-c1ccc(F)cc1.[Cl-]`, with -0.475%; and `O=C(NC1CCC1)C1CCC(=O)N(Cc2ccccc2F)C1` (stereo not shown), with -1.77%; and `Cc1cc(-c2c(C)[nH]n(-c3ccc(Cl)cc3)c2=O)n[nH]1`, with 9.37%. Regarding `COc1ccc(S(=O)(=O)n2nc(-c3ccc(Cl)cc3)cc2N)cc1OC`, the “hERG current change (%, negative = inhibition) at 10uM” value was determined as 15.5%. Then `C[C@@H]1O[C@@H](O[C@H]2[C@H](O)[C@@H](O)[C@H](Oc3c(-c4ccc(O)c(O)c4)oc4cc(O)cc(O)c4c3=O)O[C@@H]2CO)[C@H](O)[C@H](O)[C@H]1O`, with 23.1%; and `Cc1ccc(C(=O)NCc2ccc(F)cc2)s1`, with -16.8%. With `O=C(NC(=S)Nc1ccccc1N1CCOCC1)c1ccc([N+](=O)[O-])cc1` the figure was -1.82%; with `CCCN1C(=O)/C(=N\OCC(=O)NC23CC4CC(CC(C4)C2)C3)c2ccccc21`, 3.49%; with `O=C(O)C1CSC(CCc2ccccc2)N1` (stereo not shown), 14%. Regarding `Cc1ccc(N2CCN(c3ccc([N+](=O)[O-])cn3)CC2)c(C)c1`, the “hERG current change (%, negative = inhibition) at 10uM” value is listed as 6.06%. With `C=CCn1c(SCc2cc(C(C)=O)ccc2OCC)nc2ccccc2c1=O` the figure was 1.85%. With `N#C/C(=C\N1CCOCC1)C(N)=O` the figure was 11.5%; with `COc1ccc(NC(=O)CC(C)NCCCN2CCCC2=O)cc1.O=C(O)C(=O)O` (stereo not shown), 11.8%.

Turning to `CC1CCN(C(=O)C2c3ccccc3C(=O)N3CCc4ccccc4C23)CC1` (stereo not shown), the “hERG current change (%, negative = inhibition) at 10uM” value is given as 10.7%. With `CC(C)Sc1nc2c(c(=O)[nH]c(=O)n2C)n1Cc1ccc(Cl)cc1` the figure was -13.3%. With `COC(=O)C(O)(c1ccc(NC(=O)Oc2ccccc2)cc1)C(F)(F)F` (stereo not shown) the figure was -10.5%; with `Cc1ccc(NC(=O)COC(=O)c2cccnc2)cc1`, 13.8%; with `O=C(c1ccco1)n1nc(-c2ccco2)nc1SCc1ccccc1`, 7.58%.

In the case of `COc1ccc(Cc2c(N)nc(C)nc2N)cc1`, the “hERG current change (%, negative = inhibition) at 10uM” value came out at 33.4%. Then `CC(=O)NS(=O)(=O)c1ccc(NC(=O)c2oc3c(Cl)cccc3c2C)cc1`, with 4.19%; and `COc1cc(NC(=O)c2ccc(Cl)cc2)c(OC)cc1Cl`, with 0.583%. Then `O=C(NCc1ccc(Cl)cc1)C1CCN(S(=O)(=O)c2cccs2)CC1`, with -3.7%.

`CCOC(=O)Nc1ccc(C)cc1Br`: the “hERG current change (%, negative = inhibition) at 10uM” value was -13.3%. Then `COc1ccc(-n2c(O)c(/C=C/C=Nc3ccccc3)c(=O)[nH]c2=O)cc1`, with 10.9%; and `Cc1ccc(NC(=O)Nc2ccc(F)cc2F)c(OC(F)F)c1`, with 21.1%. On to `Cc1cc(NS(=O)(=O)c2ccc(NC(=O)C(C)Oc3ccccc3Cl)cc2)no1` (stereo not shown), for which the “hERG current change (%, negative = inhibition) at 10uM” value is reported as 0.736%. With `Cc1ccc(OCC(O)CN2CCc3ccccc3C2)c(C)c1.Cl` (stereo not shown) the figure was -72.3%; with `CC1CCN(c2cc(C#N)c(C#N)cc2[N+](=O)[O-])CC1`, 0.621%. With `CCOCCn1c(CN(Cc2ccccc2)Cc2ccccc2)nc2c1c(=O)[nH]c(=O)n2C` the figure was -36%. With `O=[N+]([O-])c1ccc2[nH]cc(S(=O)(=O)N3CCN(c4cccc(Cl)c4)CC3)c2c1` the figure was 16.3%; with `O=C(O)CSCC(=O)N1CCN(c2nc3cc(Cl)ccc3s2)CC1`, 5.58%; with `Cc1cccc(NC(=O)c2c(-c3ccccc3)noc2C)n1`, -35.7%.

With `CSc1cccc(NC(N)=S)c1`, the “hERG current change (%, negative = inhibition) at 10uM” value is listed as 9.95%. With `COc1ccc(C(=O)NC(=O)NC2(C(Cl)(Cl)Cl)OCCO2)cc1` the figure was 20.3%; with `CN(C)CCNC(=O)c1onc(CSc2ccncc2)c1C(=O)NCCN(C)C`, -2.03%; with `Cc1cc(C)cc(Oc2ccc(S(=O)(=O)N3CCN(C)CC3)cn2)c1`, 4.78%. Then `COc1ccccc1CC(=O)N1CCN(C(=O)c2ccco2)CC1`, with 6.5%; and `CC(NC(=O)C(CC(=O)OC(C)(C)C)NC(=O)OC(C)(C)C)C(N)=O` (stereo not shown) (Boc-Asp(OtBu)-Ala-NH2; configuration not given here), with -5.99%; and `CCOc1ccc(NC(=O)[C@H](Cc2ccccc2)NC(=O)C2CCNCC2)cc1`, with 17.7%.

`COC(=O)[C@@]1(Cc2ccc(OC)cc2)[C@H]2c3cc(C(=O)N4CCCC4)n(C[C@H](O)CO)c3C[C@H]2CN1C(=O)c1ccccc1`: the “hERG current change (%, negative = inhibition) at 10uM” value is reported as -1.32%. With `CC(Sc1nncn1C)C(=O)Nc1ccc(Cl)cn1` (stereo not shown) the figure was 1.14%; with `O=C(CCCCCn1c(SCc2ccncc2)nc2ccccc2c1=O)NCc1ccco1`, -86%; with `CC(C)COc1cccc(C(=O)Nc2ccc(CN3CCOCC3)cc2)c1`, -30.1%.

On to `O=C(O)c1ccc(N=NN2CCCC2)cc1`, for which the “hERG current change (%, negative = inhibition) at 10uM” value amounted to 33.6%. As to `O=C(N/N=C/c1ccc(Cl)cc1)c1n[nH]c2c1CCCC2`, the “hERG current change (%, negative = inhibition) at 10uM” value is given as 5.74%. Then `COc1ccc(-c2noc(CN3CCC(Cc4ccccc4)CC3)n2)cc1`, with -8.3%; and `CC(=O)c1cc(-c2ccccc2)n(CC(=O)Nc2cccc(C)c2)c1C`, with 10.9%; and `COc1ccc(S(=O)(=O)N2CCCC2CNC(=O)C(=O)NCCc2ccccc2)cc1` (stereo not shown), with -22%. With `COc1ccc(NC(=O)C(CC(C)C)NS(=O)(=O)c2ccc3c(c2)CCN3C(C)=O)cc1OC` (stereo not shown) the figure was 9.69%; with `O=C(Nc1ccccc1Oc1ccccc1)c1ccc(Br)o1`, -2.85%; with `COc1cccc(OC)c1OCCCCN1CCCCC1.O=C(O)C(=O)O`, -2.55%.

Regarding `CCC(C)NS(=O)(=O)c1ccc(NC(=O)CCC2CCCCC2)cc1` (stereo not shown), the “hERG current change (%, negative = inhibition) at 10uM” value came to 13.4%. For the compound `C[C@H](NC(=O)[C@@H]1Cc2ccccc2CN1)C(=O)NC1CCCC1`, the “hERG current change (%, negative = inhibition) at 10uM” value came out at 14%.

These data come from PMC4336329 (PLoS ONE, 2015).
